Laboratory results published in PubChem BioAssay AID463173 (ICCB-Longwood Screening Facility, Harvard Medical School, 2010).
About 1,700 (3.3%) of roughly 52,000 compounds were called active. Rule as the data show it: active = survival mostly below about 52% (no sharp cut-off); inactive = mostly above about 56%. The list shows a part of the results.

system: Wild type; experiment: S. aureus survival, RN4220 and DeltatarO strains – OD600, teichoic acid synthesis inhibitors, primary screen (AID 463173); conditions: S. aureus RN4220 wild type/DeltatarO growth, OD600, 18 h, hits give low values, screened at 18.75 µg/mL (by protocol)

Structure (SMILES) | survival
COc1cc(C(=O)Nc2ccc(NC(=O)c3ccc(C(C)(C)C)cc3)cc2)cc(OC)c1OC | inactive: 154%
O=C(COCc1cc(-c2cccs2)on1)N1CCN(c2ccccc2)CC1 | inactive: 68%
CCC1Oc2ccc(C)cc2N(CC(=O)N(Cc2ccc3c(c2)OCO3)CC2CCCO2)C1=O (stereo not drawn) | inactive: 107%
CC(C)c1ccc(N2C(=O)CSC23C(=O)N(Cc2cccc(F)c2)c2ccccc23)cc1 (stereo not drawn) | inactive: 83%
COc1ccccc1C(=O)Nc1ccc2nc(SCCOc3ccccc3C)sc2c1 | inactive: 93%
C=C(C)C1Cc2cc(/C=C/C(=O)O)c(O)cc2O1 (stereo not drawn) | inactive: 83%
Fc1ccc(NCc2nnc3n2CCCCC3)cc1Cl | inactive: 66%
COc1ccc(OC)c(CNC(=O)C2CCCN(c3ncnc4onc(-c5ccc(F)cc5)c34)C2)c1 (stereo not drawn) | inactive: 73%
CCC(=O)c1ccc(N2CCCC2)c(F)c1 | inactive: 110%
O=C(Cn1c(=O)oc2cc(S(=O)(=O)NCc3ccccc3)ccc21)Nc1cccc(F)c1 | inactive: 93%
COC(=O)c1ccc(C2Nc3c(C)cccc3-c3cc(C)nn32)cc1 (stereo not drawn) | active: -4%
CC(Oc1ccc(/C=C(/C#N)C(=O)N2CCOCC2)cc1)C(=O)O (stereo not drawn) | inactive: 104%
COc1ccccc1CNc1nc2c(S(=O)(=O)c3ccc(C)c(C)c3)nnn2c2ccc(Cl)cc12 | inactive: 98%
Cc1ccc(C(C(=O)NCC2CCCO2)N(Cc2ccc3c(c2)OCO3)C(=O)c2ccc(-c3ccccc3)[nH]2)o1 (stereo not drawn) | inactive: 81%
COc1ccc(NC(=O)C(NS(=O)(=O)c2cccc3nsnc23)C(C)C)cc1 (stereo not drawn) | inactive: 82%
NC(=O)CC(c1ccccc1)c1ccc2c(c1)OCO2 (stereo not drawn) | inactive: 117%
CCCC(CCC)C(=O)Nc1ccc(NC(=O)c2ccco2)cc1 | inactive: 110%
CCOC(=O)c1c(NC(=O)c2cc(-c3ccc(Br)cc3)on2)sc(C(C)=O)c1C | inactive: 105%
O=C(c1ccc(F)cc1)c1cn(Cc2ccccc2)c2cc3c(cc2c1=O)OCO3 | inactive: 73%
Cc1oc(-c2ccc(C(=O)Nc3ccc(F)cc3)cc2)nc1COc1ccccc1 | inactive: 93%

Structure (SMILES) | survival
COc1ccc(C2=CC(c3cc(Br)ccc3F)n3c(nc4ccccc43)N2)cc1 (stereo not drawn) | inactive: 82%
O=C(Nc1c(C(=O)N2CCN(c3ccccc3F)CC2)oc2ccccc12)c1cccc(F)c1 | inactive: 83%
Cn1nnc(NC(=O)COc2ccccc2)n1 | inactive: 99%
O=C(NCC(=O)N1CCCCC1)c1ccccc1 | inactive: 100%
CC1CCCN(c2cc3c(cc2F)c(=O)c(S(=O)(=O)c2cccc(Cl)c2)cn3Cc2ccccc2)C1 (stereo not drawn) | inactive: 63%
O=C(COc1ccccc1Cl)Nc1ccc(-c2nc3ccccc3s2)cc1 | inactive: 81%
O=C(NCCCc1ccccc1)Nc1c[nH]c2ccccc2c1=O | inactive: 108%
COc1ccc(CCNC(=O)C(=O)NCC(c2ccco2)S(=O)(=O)c2ccc(C)cc2)cc1 (stereo not drawn) | inactive: 159%
CC(C)NC(=O)c1ccc(Cn2c(SCc3ccc(F)cc3)nc3cccnc32)cc1 | inactive: 65%
O=C(CCn1c(=O)c2cccn2c2cccnc21)N1CCN(c2cccc(C(F)(F)F)c2)CC1 | inactive: 45%
Cc1cccc(CS(=O)(=O)c2ncc(Cl)c(C(=O)Nc3nnc(C(C)C)s3)n2)c1 | inactive: 46%
Cc1ccc(NC(=O)C2CCCN(S(=O)(=O)c3c(C)n[nH]c3C)C2)c(C)c1 (stereo not drawn) | inactive: 124%
COc1ccc(OC)c(/C=C/c2nc3ccccc3c(=O)n2-c2ccc(F)c(Cl)c2)c1 | inactive: 74%
COCc1nnc(NC(=O)c2cc(OC)c(OC)c(OC)c2)s1 | inactive: 90%
N#Cc1ccc(-c2ccc(F)cc2)n(CC(=O)N2CCCC2)c1=O | inactive: 131%
O=c1oc2ccccc2cc1-c1nnc(-c2ccncc2)o1 | inactive: 112%
CCC(C(=O)Nc1cc(C)ccc1C)n1c(=O)c(C(F)(F)F)nc2ccccc21 (stereo not drawn) | inactive: 99%
CCOC(=O)C1=C(O)/C(=C\c2sccc2C)N=C1C | inactive: 119%
COc1ccc(C(=O)/C=C/c2cn(CC(O)CN3CCc4ccccc43)c3ccccc23)cc1OC (stereo not drawn) | inactive: 87%
C=CCC(O)(CC=C)C(C)N (stereo not drawn) | inactive: 114%

Structure (SMILES) | survival
CC(NCc1ccc(F)cc1)C(=O)NC1CCCCC1 (stereo not drawn) | inactive: 106%
COc1cccc(CNS(=O)(=O)c2cnc(N)nc2)c1 | inactive: 57%
O=C(O)CSCC(=O)Nc1ccccc1C(F)(F)F | inactive: 109%
COc1cc(OC)cc(C(=O)Nc2ccc(-c3nc4ccccc4s3)cc2C)c1 | inactive: 95%
Cc1cc(C)n(-c2nc(C)c(C)c(=O)n2CC(=O)Nc2ccc([N+](=O)[O-])cc2)n1 | inactive: 73%
COCC(=O)n1nc(-c2ccco2)nc1NCc1ccccc1Cl | inactive: 100%
FC(F)(F)COc1nc(OCC(F)(F)F)nc(OCC(F)(F)F)n1 | inactive: 103%
COc1ccc(CCNC(=O)c2ccc3c(c2)N(Cc2ccc(F)cc2)C(=O)c2ccccc2S3(=O)=O)cc1OC | inactive: 142%
CCc1nn(CC(=O)NCc2ccco2)c(=O)c2cc3c(OC)cccc3n12 | inactive: 98%
C=CCc1cccc2cc(-c3nc4ccc(C)cc4[nH]3)c(=O)oc12 | active: -3%
CCOC(=O)c1ccc(NC(=O)Cn2cc(C(=O)C3CC3)c3ccccc32)cc1 | inactive: 85%
COc1ccccc1CNC(=O)CCc1c(C)c2cc3c(C)c(C)oc3cc2oc1=O | inactive: 114%
Cc1c(C(=O)Nc2cccc(C(F)(F)F)c2)sc2nc[nH]c(=O)c12 | inactive: 73%
Cc1ccccc1Nc1c(-c2c(F)cccc2Cl)nc2ccc(Br)cn12 | inactive: 88%
CCOC(=O)c1ccc(NC(=O)CCCn2c(=O)c3cccn3c3ccccc32)cc1 | inactive: 78%
Cc1ccc(-n2ncc3c(NCCCN4CCOCC4)ncnc32)cc1C | inactive: 51%
Cc1ccc(C)c(NC(=O)C2CCCN(c3ncnc4onc(C)c34)C2)c1 (stereo not drawn) | inactive: 110%
COc1ccc(OC)c(C2=NS(=O)(=O)N(C)C(C(=O)Nc3ccc(F)cc3F)=C2)c1 | inactive: 77%
